# Reference: PubChem BioAssay AID463254 (National Center for Advancing Translational Sciences (NCATS), 2010)
# Screen size: about 330,000 compounds; about 40 (0.01%) were called active. Inconclusive results, whose numbers are uncertain, are shown with a selection of clear calls. The call rests on the fitted dose curve; in most records, active means well fitted inhibition curve with a large enough effect; inconclusive means small, poorly fitted or top-dose-only effect, or effect the other way; inactive means flat fitted curve, though single readings scatter. Potencies beside an inconclusive call are fits to weak or partial responses and may not hold up.
# Molecular target: Ubiquitin carboxyl-terminal hydrolase 2 (Homo sapiens) (UniProt O75604)
# UniProt O75604, sequence (O75604 whole entry, looked up): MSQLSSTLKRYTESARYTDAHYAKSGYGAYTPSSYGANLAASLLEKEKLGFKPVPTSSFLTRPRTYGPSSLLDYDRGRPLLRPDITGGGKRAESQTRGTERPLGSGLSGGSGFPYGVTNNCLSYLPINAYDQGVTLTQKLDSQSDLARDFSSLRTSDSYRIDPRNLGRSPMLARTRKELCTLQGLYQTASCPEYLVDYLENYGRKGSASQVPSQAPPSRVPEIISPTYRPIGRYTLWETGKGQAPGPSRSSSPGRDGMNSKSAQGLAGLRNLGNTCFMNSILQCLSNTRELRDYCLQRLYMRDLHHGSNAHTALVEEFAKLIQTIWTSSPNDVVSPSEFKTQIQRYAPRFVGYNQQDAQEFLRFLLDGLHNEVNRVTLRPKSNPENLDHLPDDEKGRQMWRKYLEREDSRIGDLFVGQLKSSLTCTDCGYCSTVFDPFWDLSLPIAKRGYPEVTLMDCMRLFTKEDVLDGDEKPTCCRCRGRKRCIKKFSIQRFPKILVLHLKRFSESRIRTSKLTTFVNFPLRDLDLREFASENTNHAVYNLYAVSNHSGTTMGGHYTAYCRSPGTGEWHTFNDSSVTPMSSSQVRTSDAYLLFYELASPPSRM
# Test: qHTS Assay for Inhibitors of Ubiquitin-specific Protease USP2a Using CHOP2 as the Reporter
# Settings: USP2 core, Ub-CHOP2 coupled fluorogenic reporter, 485/531; series mostly up to 38.3 µM
# Outline: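 Deubiquitinase activity read as fluorescence (485/531 nm) after Ub-CHOP2 cleavage activates the enterokinase reporter on its substrate; USP2 core 10nM, Ub-CHOP2 and substrate 25nM each, 30min compound preincubation then 60min RT; data normalized to NEM, curves fitted.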
# Potency means the concentration at half of the fitted maximal effect; tags describe the fitted curve by direction and shape or compound fluorescence and quenching.
row,SMILES,Potency
1,Cc1ccc2c(c1)c1c3n2CCN(C(=O)Cn2c(-c4ccccc4)noc2=O)C3CCC1 (stereo not drawn),"inconclusive: 7.94 µM [falling, partial curve]"
2,O=C(O)c1cccc(S(=O)(=O)NNc2ccccc2C(F)(F)F)c1,"inconclusive: 3.55 µM [falling, single point]"
3,NS(=O)(=O)c1ccc(CNC(=S)NCc2ccc(Cl)cc2)cc1,inactive
4,Cc1ccc(-c2nc3cnccn3c2Nc2ccccc2)o1,inactive
5,NS(=O)(=O)c1ccc(N=Nc2c(O)c(C(=O)O)cc3ccccc23)cc1,"inconclusive: 22.4 µM [falling, single point]"
6,COc1ccc(C2=NC(=O)/C(=C\c3cc(OC)c(OC)c(OC)c3)O2)cc1,"inconclusive: 3.55 µM [fluorescent, single point]"
7,CCN1CCc2c(sc(NC(=O)Nc3ccc(Cl)c(Cl)c3)c2C(N)=O)C1,"inconclusive: 14.1 µM [fluorescent, partial curve]"
8,S=C(Cc1cccnc1)N1CCOCC1,inactive
9,Cc1ccc(C(=O)N/C(=C/c2cccs2)C(=O)NCc2ccco2)cc1,"inconclusive: 20 µM [falling, single point]"
10,c1ccc(CNc2cnccn2)cc1,inactive
11,CNc1sc(C(=O)c2ccc(F)cc2)c(N)c1-c1nc2ccccc2s1,"inconclusive: 25.1 µM [falling, single point]"
12,Cc1ccc(CSC2=Nc3ccccc3C3=NC(CC(=O)NCc4ccco4)C(=O)N23)cc1 (stereo not drawn),"inconclusive: 28.2 µM [falling, single point]"
13,COc1cccc(-c2nc(N3CCN(C)CC3)c3ccccc3n2)c1O,inactive
14,CCOC(=O)CCc1c(C)nc(SCc2ccc(C(=O)O)cc2)c(C#N)c1C,inactive
15,O=Cc1ccccc1OCCOc1ccc([N+](=O)[O-])cc1,inactive
16,O=C(COC(=O)c1ccc(F)c(S(=O)(=O)N2CCOCC2)c1)c1ccccc1,"inconclusive: 2.82 µM [falling, single point]"
17,CCCCCCc1cc2cc(-c3nnc(-c4ccccc4)o3)c(=O)oc2cc1O,"inconclusive: 15.8 µM [fluorescent, partial curve]"
18,Cc1nc2cc3ccccc3cc2c(=O)[nH]1,"inconclusive: 5.01 µM [falling, single point]"
19,Oc1ccc2nnc3c(Br)cnn3c2c1,"inconclusive: 12.6 µM [fluorescent, partial curve]"
20,O=C(O)CN1C(=O)/C(=C\c2cc([N+](=O)[O-])ccc2OCc2ccccc2Cl)SC1=S,"inconclusive: 12.6 µM [falling, single point]"
21,O=C(CSc1nnnn1-c1ccc(F)cc1)c1ccc(O)c(O)c1,active: 5.62 µM
22,O=C(c1cc(-c2ccco2)on1)N1CCc2ccccc2C1,"inconclusive: 28.2 µM [falling, single point]"
23,N#Cc1c(SCC(=O)Nc2nncs2)sc2c(O)cc(=O)[nH]c12,"inconclusive: 28.2 µM [falling, single point]"

row,SMILES,Potency
1,C=CC[C@H](CC(=O)N[C@H](CO)Cc1ccccc1)C(=O)N[C@H](COC(=O)[C@@H](CC=C)CC(=O)OC(C)(C)C)Cc1c[nH]c2ccccc12,"inconclusive: 28.2 µM [falling, single point]"
2,CCOC(=O)Nc1ccc(NCc2ccc(F)cc2)nc1N,"inconclusive: 11.2 µM [fluorescent, single point]"
3,Cc1ccc(/C(N)=N/OC(=O)Oc2ccccc2)cc1,"inconclusive: 5.01 µM [falling, single point]"
4,COc1cc(/C=C(\C#N)c2nc3ccccc3[nH]2)cc(OC)c1O,"inconclusive: 11.2 µM [fluorescent, partial curve]"
5,O=C(COc1ccccc1)N1CCN(C(=O)Cc2ccccc2)CC1,"inconclusive: 14.1 µM [falling, single point]"
6,O=C(Nc1ccc(OC(F)(F)F)cc1)Nc1cccnc1,inactive
7,COc1ccc(N(C(=O)C(C)C)S(=O)(=O)c2ccc(Cl)cc2)cc1,"inconclusive: 20 µM [falling, single point]"
8,Cc1ccc(SCc2cc(=O)c3c(=O)n(-c4ccccc4)[nH]c3[nH]2)cc1,"inconclusive: 28.2 µM [falling, single point]"
9,N=C1/C(=C\c2coc3ccc(O)cc3c2=O)C(=O)N=C2SC=CN12,"inconclusive: 11.2 µM [fluorescent, partial curve]"
10,O=C(Nc1ncccc1Cl)c1cccc(F)c1,"inconclusive: 5.01 µM [falling, single point]"
11,Cn1nnnc1Sc1ncnc2scc(-c3ccc4c(c3)OCO4)c12,"inconclusive: 12.6 µM [falling, single point]"
12,CC1CCCN(c2oc(-c3cccc4ccccc34)nc2C#N)C1 (stereo not drawn),inactive
13,O=C1/C(=C/C=C/c2ccco2)SC(=S)N1c1ccc(O)cc1,"inconclusive: 28.2 µM [falling, single point]"
14,COc1ccc(-c2oc3ccccc3c(=O)c2OCC(=O)O)cc1,inactive
15,COc1ccc(Cc2nnc(N)s2)cc1OC,inactive
16,Cc1cc(NC(=O)c2cccc(S(=O)(=O)N(C)C)c2)n(-c2ccccn2)n1,"inconclusive: 3.16 µM [falling, single point]"
17,COC(=O)c1ccc(N2CCOCC2)c(NC(=O)Nc2cccc(OC)c2)c1,inactive
18,CCCCCCCCCCOC(=O)Cn1c(COc2ccc(Cl)cc2)[n+](C)c2ccccc21,"inconclusive: 20 µM [falling, single point]"
19,C#CCOCCOCCOCCNc1nc(N2CCN(C(=O)CCCCCCCCCCNC(=O)[C@H]([C@@H](C)CC)n3cc(CCCCN=C(N)N)nn3)CC2)nc(N2CCN(C(=O)CCCCCCCCCCNC(=O)[C@H](CCCCN)n3cc(C[C@@H](C)CC)nn3)CC2)n1,"inconclusive: 10 µM [falling, partial curve]"
20,CN1CCN(c2ccc(NC(=O)c3ccc(Oc4ccccc4)cc3)cc2)CC1,inactive
21,c1ccc(-c2cn3nc(-c4ccccc4)c(-c4ccccc4)nc3n2)cc1,"inconclusive: 12.6 µM [fluorescent, single point]"
22,CCOC(=O)Nc1nnc(CCc2ccccc2)s1,"inconclusive: 28.2 µM [falling, single point]"
23,Cc1ccc(C(=O)COC(=O)CNC(=O)CN2C(=O)c3ccccc3C2=O)cc1,"inconclusive: 20 µM [falling, single point]"

row,SMILES,Potency
1,CCN=C(N/N=C/c1ccc([N+](=O)[O-])cc1)SC,inactive
2,O=C(NNC(=O)c1cc2ccccc2cc1O)Nc1ccccc1F,"inconclusive: 28.2 µM [falling, single point]"
3,CSc1c(C#N)c(N)nc2sc(C(=O)c3ccccc3)c(N)c12,"inconclusive: 12.6 µM [fluorescent, single point]"
4,COc1cc(C(c2c(C)[nH][nH]c2=O)c2c(C)[nH][nH]c2=O)ccc1OCc1ccc([N+](=O)[O-])cc1,"inconclusive: 12.6 µM [falling, single point]"
5,CCN1C(=O)c2cccc3c(N)ccc(c23)C1=O,"inconclusive: 11.2 µM [fluorescent, partial curve]"
6,N#Cc1cccc(C(=O)N(CCc2ccccc2)Cc2cccs2)c1,"inconclusive: 20 µM [falling, single point]"
7,N#CC1=C(N)Oc2n[nH]c(-c3cccnc3)c2C1c1ccc([N+](=O)[O-])o1 (stereo not drawn),inactive
8,CCN(CC)CCn1c2c(c(SCC(=O)Nc3nccs3)nc1=O)CCCC2,inactive
9,N#C/C(=C\c1ccc(O)c(O)c1)C(=O)Nc1cccc2ncccc12,"inconclusive: 20 µM [falling, single point]"
10,CSc1nc(N2CCOCC2)c2c3c(sc2n1)CCCC3,inactive
11,O=C(COC(=O)CCc1c[nH]c(=O)[nH]1)Nc1ccccc1,"inconclusive: 28.2 µM [fluorescent, single point]"
12,COc1cc(C(C2C(=O)CC(C)(C)CC2=O)C2C(=O)CC(C)(C)CC2=O)ccc1O,inactive
13,CCc1cc2c(=O)c(-c3nc4ccccc4n3C)coc2c(CN2CCCCC2C)c1O (stereo not drawn),"inconclusive: 28.2 µM [falling, single point]"
14,O=C(CCc1nc(-c2ccccc2F)no1)NC1CCCCCC1,"inconclusive: 5.01 µM [falling, single point]"
15,COCc1nnc(NC(=O)c2ccc(S(=O)(=O)N3CCCc4ccccc43)cc2)o1,inactive
16,COc1cccc2c1C(=O)c1c(O)c3c(c(O)c1C2=O)C[C@](O)(C(C)=O)C[C@H]3O[C@@H]1C[C@@H](N)[C@@H](O)[C@@H](C)O1,"inconclusive: 10 µM [fluorescent, partial curve]"
17,C#CCOCCOCCOCCNc1nc(N2CCN(C(=O)CCCCCCCCCCNC(=O)[C@H](CCCCN)n3cc(CCO)nn3)CC2)nc(N2CCN(C(=O)CCCCCCCCCCNC(=O)[C@H](CCCCN)n3cc(CCO)nn3)CC2)n1,"inconclusive: 22.4 µM [falling, single point]"
18,COc1ccc(-c2cc(C)no2)cc1S(=O)(=O)N1CCCCC1,inactive
19,CCOC(=O)C1C(=O)CC(C)(O)C(C(=O)OCC)C1c1ccco1 (stereo not drawn),inactive
20,Cc1cc(-c2nnc3n2N=C(c2ccc(-c4ccccc4)cc2)CS3)n[nH]1,"inconclusive: 11.2 µM [falling, single point]"
21,Cn1c(=O)c(C(=O)Nc2ccccc2S(N)(=O)=O)c(O)c2ccccc21,"inconclusive: 22.4 µM [falling, single point]"
22,N#CC1=C(N)OC2=C(CC/C2=C\c2ccccc2)C1c1ccccc1 (stereo not drawn),"inconclusive: 1.12 µM [fluorescent, partial curve]"
